Test results published in the supplement of paper PMC9446081.
Hit rate of the full screen: of about 39,000 compounds, about 220 (0.56%) showed activity. The list shows a part of the results.

test system: Escherichia coli K-12 BW25113; assay: relative growth (OD600 normalised to plate interquartile mean) (fraction); higher = less growth inhibition, active = 0.2 or less; conditions: 50 µM; LB; incubation time: overnight (16-24 h)
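Note: static incubation at 37 °C against the wild-type strain, values averaged over two biological replicates.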

| SMILES | relative growth |
| --- | --- |
| C[C@@H]1CN([C@@H](C)CO)S(=O)(=O)c2ccc(-c3ccncc3)cc2O[C@@H]1CN(C)Cc1ccc(Oc2ccccc2)cc1 | inactive: 1.05 |
| C[C@H](CO)N1C[C@H](C)[C@H](CN(C)Cc2ccccn2)Oc2ncc(C#Cc3ccc(F)cc3)cc2C1=O | inactive: 0.992 |
| C[C@@H]1CN([C@H](C)CO)C(=O)c2cc(NC(=O)Nc3cccc4ccccc34)ccc2O[C@@H](C)CCCCO[C@H]1CN(C)S(=O)(=O)c1ccccc1 | inactive: 1.03 |
| [O-][NH2+][O-] | inactive: 1.02 |
| C[C@H](CO)N1C[C@H](C)[C@H](CN(C)Cc2ccc(C(F)(F)F)cc2)Oc2ccc(NC(=O)C3CCCCC3)cc2C1=O | inactive: 1 |
| C[C@H]1CN([C@@H](C)CO)S(=O)(=O)c2ccc(C#Cc3ccncc3)cc2O[C@@H]1CN(C)C(=O)C1CCC1 | inactive: 0.92 |
| COCC(=O)N1CC(=O)N2[C@H](CO)[C@@H](c3ccc(C#Cc4cccnc4)cc3)[C@@H]2C1 | inactive: 0.935 |
| COc1ccc(NC(=O)Nc2ccc3c(c2)C(=O)N([C@@H](C)CO)C[C@@H](C)[C@@H](CN(C)S(=O)(=O)c2ccc(OC)cc2)OCCCC[C@@H](C)O3)cc1 | inactive: 1.05 |
| CN(C)CC(=O)N1[C@@H]2c3ccc(-c4ccccc4)c(=O)n3C[C@H]1[C@H](CO)[C@H]2C(=O)N1CCOCC1 | inactive: 0.986 |
| Cc1noc(C)c1S(=O)(=O)Nc1ccc2c(c1)CC(=O)N([C@@H](C)CO)C[C@@H](C)[C@H](CN(C)Cc1ccc(Oc3ccccc3)cc1)O2 | inactive: 0.996 |
| CC1=C(C(=O)O)N2C(=O)C(NC(=O)C(N)c3ccc(O)cc3)C2SC1 (stereo unspecified) | inactive: 0.986 |
| C[C@H](N)C(=O)NCC(=O)N[C@H]1CSSC[C@@H](C(=O)O)NC(=O)[C@H](CO)NC(=O)[C@H]([C@@H](C)O)NC(=O)[C@H](Cc2ccccc2)NC(=O)[C@H]([C@@H](C)O)NC(=O)[C@H](CCCCN)NC(=O)[C@H](Cc2c[nH]c3ccccc23)NC(=O)[C@H](Cc2ccccc2)NC(=O)[C@H](Cc2ccccc2)NC(=O)[C@H](CC(N)=O)NC(=O)[C@H](CCCCN)NC1=O | inactive: 0.962 |
| CCS(=O)(=O)Nc1ccc2c(c1)C(=O)N(C)[C@H]1CC[C@H](CC(=O)N[C@H]3CCN(Cc4ccccc4)C3)O[C@H]1CO2 | inactive: 1.01 |
| COc1ccc(NC(=O)Nc2ccc3c(c2)C(=O)N([C@H](C)CO)C[C@H](C)[C@H](CN(C)Cc2ccccc2)OCCCC[C@H](C)O3)cc1 | inactive: 0.966 |
| CC(C)(C)[S@@](=O)N1Cc2cc(C(=O)NCCc3ccncc3)nc(-c3cccc(-c4cccc(C#N)c4)c3)c2[C@H]1CCO | inactive: 1.01 |
| CCNC(=O)[C@@H]1CCCN1C(=O)[C@H](CCCN=C(N)N)NC(=O)[C@H](CC(C)C)NC(=O)[C@@H](COC(C)(C)C)NC(=O)[C@H](Cc1ccc(O)cc1)NC(=O)[C@H](CO)NC(=O)[C@H](Cc1c[nH]c2ccccc12)NC(=O)[C@H](Cc1c[nH]cn1)NC(=O)[C@@H]1CCC(=O)N1 | inactive: 0.95 |
| CC1CCC2(C)C(C=O)=CCCC2C1(C)CC1OC(O)C(=O)C12CO2 (stereo unspecified) | active: 0.0462 |
| CC(=O)n1cc([C@H]2C=C(C(=O)N3CCN(Cc4ccccc4)CC3)O[C@@H](OCc3ccc(CO)cc3)C2)c2ccccc21 | inactive: 1 |
| C[C@@H]1CN([C@H](C)CO)S(=O)(=O)c2ccc(C3=CCCCC3)cc2O[C@H]1CN(C)S(=O)(=O)c1cn(C)cn1 | inactive: 0.995 |

| SMILES | relative growth |
| --- | --- |
| C[C@H](CO)N1C[C@H](C)[C@H](CN(C)Cc2ccc(C(=O)Nc3ccccc3N)cc2)Oc2ccc(NC(=O)CCN3CCOCC3)cc2CC1=O | inactive: 0.917 |
| Cc1cn([C@@H]2C[C@@H](O)[C@H](CO)O2)c(=O)[nH]c1=O | inactive: 0.991 |
| C[C@H]1CN([C@@H](C)CO)C(=O)c2cc(NC(=O)Cn3cnnn3)ccc2O[C@@H]1CN(C)C(=O)Nc1ccccc1 | inactive: 1.01 |
| CC[C@H](C(=O)N1CCCC[C@H]1C(=O)O[C@H](CCc1ccc(OC)c(OC)c1)c1cccc(OCC(=O)NCCNC(=O)COc2cccc([C@@H](CCc3ccc(OC)c(OC)c3)OC(=O)[C@@H]3CCCCN3C(=O)[C@@H](CC)c3cc(OC)c(OC)c(OC)c3)c2)c1)c1cc(OC)c(OC)c(OC)c1 | inactive: 1 |
| Cc1ccc(-c2csc(-c3ccc(C(F)(F)F)cc3)n2)cc1 | inactive: 0.984 |
| C[C@@H]1CN([C@H](C)CO)C(=O)c2cccc(NS(C)(=O)=O)c2O[C@@H]1CN(C)S(C)(=O)=O | inactive: 0.996 |
| Cn1c(=O)n2n(c1=O)[C@H](C1CC1)C=C1CN3[C@@H]([C@H](Cc4ccccc4)OC(=O)[C@@H]3COC(=O)NCCCCCC(=O)NO)[C@@H]12 | inactive: 0.988 |
| C[C@@H]1CN([C@@H](C)CO)C(=O)c2cc(NC(=O)CCCN(C)C)ccc2O[C@@H]1CN(C)S(=O)(=O)c1ccc(Cl)cc1 | inactive: 1 |
| C[C@H](CO)N1C[C@H](C)[C@H](CN(C)C(=O)Nc2ccc(C(F)(F)F)cc2)Oc2ccc(NC(=O)Nc3cccc4ccccc34)cc2CC1=O | inactive: 0.985 |
| C[C@@H]1CCCCO[C@H](CN(C)S(=O)(=O)c2ccc(Cl)cc2)[C@@H](C)CN([C@@H](C)CO)C(=O)c2cc(NC(=O)C3CCCCC3)ccc2O1 | inactive: 1.02 |
| CCOC(=O)CC1(N)CCCCC1 | inactive: 0.984 |
| CC(C)NC(=O)N(C)C[C@@H]1Oc2ccc(NC(=O)c3ccncc3)cc2CC(=O)N([C@H](C)CO)C[C@H]1C | inactive: 0.979 |
| Cc1noc(C2CNC2)n1 | inactive: 1.01 |
| CCCN(C)C[C@H]1OCCCC[C@@H](C)Oc2ccc(NC(=O)Nc3ccc(C(F)(F)F)cc3)cc2C(=O)N([C@@H](C)CO)C[C@H]1C | inactive: 0.968 |
| CN(C)CC(=O)N[C@H]1CC[C@H](CCNS(=O)(=O)c2ccccc2)O[C@@H]1CO | inactive: 1 |
| CC(N)(Cc1ccc2c(c1)OCO2)C(=O)O (stereo unspecified) | inactive: 1.04 |
| CC(C)NC(=O)Nc1cccc2c1O[C@@H](CN(C)C(=O)Nc1ccc3c(c1)OCO3)[C@@H](C)CN([C@H](C)CO)C2=O | inactive: 0.977 |
| C[C@@H]1CN([C@H](C)CO)S(=O)(=O)c2ccc(C#Cc3cccc(F)c3)cc2O[C@@H]1CN(C)CC1CC1 | inactive: 0.981 |
| C[C@@H]1CCCCO[C@@H](CN(C)C(=O)CCC(F)(F)F)[C@@H](C)CN([C@@H](C)CO)C(=O)c2cc(NC(=O)C3CCCCC3)ccc2O1 | inactive: 0.988 |

| SMILES | relative growth |
| --- | --- |
| CC(C)NC(=O)Nc1ccc2c(c1)C(=O)N(C)[C@@H]1CC[C@@H](CC(=O)NCc3ccc(F)cc3)O[C@H]1CO2 | inactive: 1.03 |
| CO[C@H]1CN(C)C(=O)c2cc(NC(=O)Nc3ccc(Cl)cc3)ccc2OC[C@@H](C)N(C(=O)Nc2c(C)noc2C)C[C@H]1C | inactive: 0.99 |
| C[C@H]1CN([C@@H](C)CO)C(=O)c2cc(/C=C/c3ccccc3)cnc2O[C@@H]1CN(C)S(=O)(=O)c1cn(C)cn1 | inactive: 0.996 |
| C[C@@H]1CN([C@H](C)CO)C(=O)c2cc(C#C[C@@H](C)O)cnc2O[C@@H]1CN(C)C(=O)Nc1ccc(C(F)(F)F)cc1 | inactive: 1.01 |
| CC(=O)n1cc([C@@H]2C=C(C(=O)N3CCN(Cc4ccccc4)CC3)O[C@H](OCc3ccc(CO)cc3)C2)c2ccccc21 | inactive: 1.02 |
| C[C@H](CO)N1C[C@H](C)[C@@H](CN(C)C(=O)Nc2ccc3c(c2)OCO3)Oc2cc(C#Cc3cccnc3)ccc2S1(=O)=O | inactive: 1.02 |
| Cc1noc(C)c1NC(=O)Nc1ccc2c(c1)C(=O)N([C@H](C)CO)C[C@@H](C)[C@H](CN(C)Cc1ccncc1)OCCCC[C@@H](C)O2 | inactive: 0.993 |
| Cc1ccc(S(=O)(=O)N(C)C[C@H]2OCCCC[C@H](C)Oc3ccc(NC(=O)Cc4ccccc4)cc3C(=O)N([C@@H](C)CO)C[C@@H]2C)cc1 | inactive: 0.993 |
| C[C@H](CO)N1C[C@H](C)[C@H](CN(C)C(=O)c2cc(-c3ccccc3)on2)OCc2cnnn2CCCC1=O | inactive: 0.995 |
| COCCNC(=O)C[C@H]1CC[C@@H]2[C@H](COC[C@H](O)CN2C(=O)Nc2ccc3c(c2)OCO3)O1 | inactive: 0.988 |
| CC1=CC[C@H](C(C)(C)O)CC1 | inactive: 0.957 |
| CC(C)NC(=O)Nc1ccc2c(c1)C(=O)N([C@@H](C)CO)C[C@@H](C)[C@@H](CN(C)C(=O)C1CCCCC1)OCCCC[C@H](C)O2 | inactive: 0.978 |
| C[C@H]1CN([C@@H](C)CO)C(=O)c2cc(NC(=O)C3CCCCC3)ccc2O[C@H]1CN(C)Cc1ccc(C(=O)Nc2ccccc2N)cc1 | inactive: 0.938 |
| Cc1noc(C)c1S(=O)(=O)Nc1ccc2c(c1)C(=O)N([C@H](C)CO)C[C@@H](C)[C@H](CN(C)C(=O)Nc1ccccc1)OCCCC[C@@H](C)O2 | inactive: 1.05 |
| C[C@H](CO)N1C[C@H](C)[C@@H](CN(C)C(=O)NC2CCCCC2)Oc2c(NC(=O)C3CCOCC3)cccc2C1=O | inactive: 1.02 |
| C[C@@H]1CN([C@H](C)CO)C(=O)c2cc(NC(=O)Cn3cnnn3)ccc2O[C@H]1CN(C)C(=O)NC1CCCCC1 | inactive: 0.992 |
| Cc1noc(C)c1S(=O)(=O)Nc1ccc2c(c1)CC(=O)N([C@@H](C)CO)C[C@@H](C)[C@H](CN(C)Cc1ccc(-c3ccccc3)cc1)O2 | inactive: 1.03 |
| CCC(=O)N1C[C@]2(C1)CN([C@H](CO)c1c2c2ccc(cc2n1C)OC)S(=O)(=O)C | inactive: 0.932 |
